In the supplement of paper PMC9446081 one finds relative growth data, which are given here for 59 compounds.

In all, about 39,000 compounds went through this assay and about 220 (0.56%) showed activity. The list shows a part of the results.
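Note: static incubation at 37 °C against the wild-type strain, values averaged over two biological replicates.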

The assay has as its system Escherichia coli K-12 BW25113. The assay is described as follows: relative growth (OD600 normalised to plate interquartile mean) (fraction); higher = less growth inhibition, active = 0.2 or less. The conditions noted are these: 50 µM; LB; incubation time: overnight (16-24 h).
With `C[C@@H]1CN([C@@H](C)CO)C(=O)c2c(c3ccccc3n2C)-c2ccccc2CO[C@H]1CN(C)Cc1cccc(C(F)(F)F)c1`, the relative growth is inactive: 1.06. With `C=CCC[C@@H](Cc1ccc(F)cc1)C(=O)OC[C@@H]1CCCN1C(=O)[C@@H](CC=C)CC(=O)N(CCO)Cc1ccccc1` the figure was inactive: 1.07; with `C[C@H]1CN([C@@H](C)CO)C(=O)c2cc(NS(=O)(=O)c3ccc(F)cc3)ccc2O[C@H]1CN(C)C(=O)Nc1ccc(C(F)(F)F)cc1`, inactive: 1.

In the case of `CCC(=O)Nc1ccc2c(c1)OC[C@H](C)N(C(=O)CN1CCOCC1)C[C@H](C)[C@H](OC)CN(C)C2=O`, the relative growth was inactive: 1.01. With `CC(C)NC(=O)N(C)C[C@H]1Oc2ccc(NC(=O)Cn3cnnn3)cc2CC(=O)N([C@@H](C)CO)C[C@@H]1C` the figure was inactive: 0.997; with `C[C@@H]1CCCCO[C@H](CN(C)C(=O)C2CCCCC2)[C@H](C)CN([C@@H](C)CO)C(=O)c2cc(NC(=O)Cc3ccccc3)ccc2O1`, inactive: 0.992; with `C[C@H](CO)N1C[C@H](C)[C@@H](CN(C)Cc2ccncc2)Oc2ccc(NC(=O)CCCN(C)C)cc2C1=O`, inactive: 0.982.

With `Cc1noc(C)c1NC(=O)Nc1ccc2c(c1)C(=O)N([C@H](C)CO)C[C@@H](C)[C@@H](CN(C)CC1CCCCC1)OCCCC[C@@H](C)O2`, the relative growth was inactive: 0.972. Turning to `Cc1noc(C)c1S(=O)(=O)Nc1ccc2c(c1)C(=O)N([C@@H](C)CO)C[C@H](C)[C@@H](CN(C)Cc1ccc(Cl)c(Cl)c1)OCCCC[C@H](C)O2`, the relative growth was inactive: 0.995. In the case of `CON=C(C(=O)NC1C(=O)N2C(C(=O)[O-])=C(COC(C)=O)CSC12)c1csc(N)n1.[Na+]` (centres undefined) it was active: 0.0428. Take `O=C(C[C@H]1C[C@H]2c3cc(NS(=O)(=O)c4ccc(F)cc4)ccc3O[C@H]2[C@@H](CO)O1)NCc1ccccn1`: the relative growth is inactive: 1.03. In the case of `CC(=O)O[C@H]1CC[C@]2(C)[C@H]3CC[C@]4(C)C(=CC(=O)O[C@H]4c4ccoc4)[C@]3(C)[C@H](OC(C)=O)C[C@H]2C1(C)C` it was inactive: 0.992; in that of `C[C@@H]1CN([C@@H](C)CO)C(=O)c2cccc(NC(=O)C3CCOCC3)c2O[C@@H]1CN(C)S(=O)(=O)c1ccccc1`, inactive: 0.967. In the case of `C[C@@H]1CN([C@@H](C)CO)C(=O)c2cc(NS(=O)(=O)c3cn(C)cn3)ccc2O[C@@H]1CN(C)Cc1ccc(C(=O)Nc2ccccc2N)cc1` it was inactive: 0.946; in that of `CNC[C@H]1Oc2ccc(NC(=O)CCN3CCOCC3)cc2CC(=O)N([C@@H](C)CO)C[C@H]1C`, inactive: 0.976. With `COc1ccc2c3c([nH]c2c1)[C@H](CO)N(C[C@]13CN(Cc2ccccc2F)C1)S(=O)(=O)c1cn(cn1)C` the figure was inactive: 0.979; with `Cc1noc(C)c1S(=O)(=O)N(C)C[C@@H]1Oc2ccc(NS(=O)(=O)c3ccccc3)cc2CC(=O)N([C@H](C)CO)C[C@@H]1C`, inactive: 1.02. As to `COc1ccc(CN(C)C[C@H]2OCCCC[C@@H](C)Oc3ccc(NS(=O)(=O)c4ccccc4)cc3C(=O)N([C@H](C)CO)C[C@H]2C)cc1`, the relative growth was inactive: 0.977.

For the compound `Cc1cccc(NC(=O)Nc2ccc3c(c2)C(=O)N(C)[C@@H]2CC[C@@H](CC(=O)NCc4ccccc4Cl)O[C@H]2CO3)c1`, the relative growth is inactive: 1.01.

`C[C@H]1CN([C@@H](C)CO)C(=O)c2cc(NC(=O)Nc3ccc4c(c3)OCO4)ccc2O[C@H]1CN(C)S(=O)(=O)c1cn(C)cn1`: the relative growth is inactive: 0.985. In the case of `Cc1ccccc1S(=O)(=O)N1C[C@H](O)COC[C@H]2O[C@@H](CC(=O)NCCc3ccccc3)CC[C@@H]21`, the relative growth was inactive: 0.987. In the case of `COc1ccc2c3c(n(c2c1)C)[C@@H](CO)N(CC1CCOCC1)C[C@]13CN(C1)C(=O)Cc1cccnc1` it was inactive: 0.992; in that of `CC(C)NC(=O)Nc1ccc2c(c1)C(=O)N([C@@H](C)CO)C[C@@H](C)[C@@H](CN(C)Cc1ccc(C(F)(F)F)cc1)OCCCC[C@@H](C)O2`, inactive: 0.992; in that of `O=C(C[C@@H]1C[C@@H]2c3cc(NC(=O)Cc4ccncc4)ccc3O[C@@H]2[C@@H](CO)O1)NCc1ccc2c(c1)OCO2`, inactive: 1.03. Turning to `C[C@H]1CN([C@@H](C)CO)C(=O)c2cc(C#CC3(O)CCCC3)cnc2O[C@@H]1CN(C)S(C)(=O)=O`, the relative growth is inactive: 0.977.

In the case of `C=CCC[C@H](Cc1ccc(F)cc1)C(=O)OC[C@@H](Cc1c[nH]c2ccccc12)NC(=O)[C@@H](CC=C)CC(=O)N[C@@H](CO)Cc1ccccc1`, the relative growth was inactive: 1.02.

For the compound `O=C1O[C@H](c2ccccc2)[C@H](c2ccccc2)N2[C@H]1[C@@H](C(=O)N1CCCCCCC1)[C@]1(C(=O)Nc3ccccc31)[C@H]2c1ccc(O)cc1`, the relative growth is inactive: 1.03.

For the compound `Nc1ncnc2nc[nH]c12`, the relative growth was inactive: 0.971.

In the case of `COc1ccc(NC(=O)N(C)C[C@H]2Oc3ccc(NC(=O)CCCCCC(=O)Nc4ccccc4N)cc3CC(=O)N([C@H](C)CO)C[C@@H]2C)cc1`, the relative growth was inactive: 1.01.

Take `C[C@@H]1CN([C@@H](C)CO)C(=O)c2cc(C#Cc3ccncc3)cnc2O[C@@H]1CN(C)S(=O)(=O)c1ccccc1F`: the relative growth was inactive: 0.976. As to `C[n+]1cccc(C(=O)O)c1`, the relative growth was inactive: 0.979. In the case of `Cn1ccnc1CO` it was inactive: 1; in that of `COCC(=O)N(C)C[C@H]1Oc2cc(C#CCC3CCCC3)ccc2S(=O)(=O)N([C@H](C)CO)C[C@H]1C`, inactive: 0.964.

For `C[C@@H]1CCCCO[C@H](CN(C)Cc2ccc(Cl)c(Cl)c2)[C@@H](C)CN([C@@H](C)CO)C(=O)c2cc(NC(=O)Cc3ccccc3)ccc2O1`, the relative growth is inactive: 0.95.

On to `C[C@@H]1CCCCO[C@@H](CN(C)S(=O)(=O)c2cccs2)[C@@H](C)CN([C@@H](C)CO)C(=O)c2cc(NC(=O)Nc3cccc4ccccc34)ccc2O1`, for which the relative growth is inactive: 1.01. With `C[C@@H]1CCCCO[C@H](CN(C)S(=O)(=O)c2ccc(Cl)cc2)[C@H](C)CN([C@@H](C)CO)C(=O)c2cc(NS(=O)(=O)c3cccs3)ccc2O1` the figure was inactive: 1.01. In the case of `CCOc1nn(CC)cc1C(=O)O` it was inactive: 0.984; in that of `Cc1ccc(S(=O)(=O)Nc2ccc3c(c2)CC(=O)N([C@@H](C)CO)C[C@H](C)[C@@H](CN(C)S(=O)(=O)c2c(C)noc2C)O3)cc1`, inactive: 0.984. With `C[C@H](CO)N1C[C@H](C)[C@@H](CN(C)S(=O)(=O)c2ccccc2)OCCCC[C@H](C)Oc2ccc(NC(=O)NC3CCCCC3)cc2C1=O` the figure was inactive: 1.02; with `C[C@H](CO)N1C[C@H](C)[C@H](CN(C)C(=O)CCC(F)(F)F)OCc2ccccc2-c2c(n(C)c3ccccc23)C1=O`, inactive: 0.979; with `OC1OC(c2ccc(Cl)c(Cc3ccc(OC4CCOC4)cc3)c2)C(O)C(O)C1O` (centres undefined), inactive: 1.01. For the compound `O=C(C[C@@H]1C[C@@H]2c3cc(NC(=O)C4CCOCC4)ccc3O[C@@H]2[C@@H](CO)O1)NCc1cc(F)ccc1F`, the relative growth was inactive: 0.979. As to `CO[C@@H]1CN(C)C(=O)c2ccc(NC(=O)Nc3ccc(Cl)cc3)cc2OC[C@H](C)N(C(=O)Nc2c(C)noc2C)C[C@H]1C`, the relative growth is inactive: 0.996. With `O=C(C[C@@H]1C=C[C@H](NS(=O)(=O)c2ccccc2)[C@@H](CO)O1)NCc1ccncn1` the figure was inactive: 1.01; with `C[C@@H]1CN([C@@H](C)CO)C(=O)c2cccc(NC(=O)Nc3ccc(F)cc3)c2O[C@@H]1CN(C)C(=O)Nc1ccc(C(F)(F)F)cc1`, inactive: 1.

Consider `C[C@@H]1CN([C@@H](C)CO)C(=O)Cc2cc(NC(=O)C3CC3)ccc2O[C@H]1CN(C)S(=O)(=O)c1ccccc1`, for which the relative growth was inactive: 1.02. Regarding `CC(CC(=O)C1OC1(C)C)C1C(=O)CC2(C)C3=CCC4C(C)(C)C(OC5OCC(O)C(O)C5O)CCC45CC35C(O)CC12C` (centres undefined), the relative growth was inactive: 0.978.

For the compound `C[C@H](CO)N1C[C@H](C)[C@@H](CN(C)S(C)(=O)=O)Oc2ccc(NC(=O)CCCCCC(=O)Nc3ccccc3N)cc2C1=O`, the relative growth is inactive: 0.985. In the case of `COc1ccc2c3c([nH]c2c1)[C@@H](CO)N(C[C@]13CCN(CC1)C(=O)Nc1ccccc1)C(=O)Nc1ccc(cc1)F` it was inactive: 0.987; in that of `C#CCCCCCCCCCCC[C@H](O)C[C@H](O)COC(C)=O.C=CCCCCCCCCCCC[C@H](O)C[C@H](O)COC(C)=O`, inactive: 0.803.

As to `COc1ccc(C#Cc2ccc3c(c2)[C@]2(C(=O)N3)[C@H](C(=O)Nc3nc4ccccc4s3)[C@H]3C(=O)O[C@H](c4ccccc4)[C@H](c4ccccc4)N3[C@@H]2c2ccccc2OCCO)cc1`, the relative growth was inactive: 1.02. With `NCCCS(=O)(=O)O` the figure was inactive: 0.971; with `C[C@H]1CN([C@@H](C)CO)C(=O)Cc2cc(NC(=O)Nc3ccc4c(c3)OCO4)ccc2O[C@H]1CN(C)S(C)(=O)=O`, inactive: 0.989; with `C[C@@H]1CCCCO[C@@H](CN(C)S(=O)(=O)c2cccs2)[C@@H](C)CN([C@@H](C)CO)C(=O)c2cc(NC(=O)c3ccccc3)ccc2O1`, inactive: 1.02.

Turning to `CC#CCO[Si](C#CCCCCCC)(C(C)C)C(C)C`, the relative growth is inactive: 0.992. In the case of `C[C@@H]1CCCCO[C@@H](CN(C)Cc2ccc(Cl)c(Cl)c2)[C@H](C)CN([C@H](C)CO)C(=O)c2cc(NS(=O)(=O)c3ccc(F)cc3)ccc2O1` it was inactive: 1.03; in that of `COc1ccccc1-c1ccc2n(c1=O)C[C@@H]1[C@@H](CO)[C@H](C(=O)NCC3CC3)N(S(C)(=O)=O)[C@H]21`, inactive: 0.996; in that of `C[C@@H]1CN([C@H](C)CO)C(=O)c2cc(NC(=O)CCN3CCOCC3)ccc2O[C@H]1CN(C)Cc1ccc2c(c1)OCO2`, inactive: 1.04. With `C[C@H](CO)N1C[C@H](C)[C@H](CN(C)S(=O)(=O)c2cccs2)Oc2ncc(-c3ccc(F)cc3)cc2C1=O` the figure was inactive: 0.964.
